Experimental data published in PubChem BioAssay AID504832 (National Center for Advancing Translational Sciences (NCATS), 2011).
The whole screen tested about 310,000 compounds, of which about 18,000 (5.8%) were called active. The shares of active, inactive and inconclusive entries below differ from those in the screen. Calls come from the whole dose curve; as a rule, active = well fitted inhibition curve with a large enough effect; inconclusive = small, poorly fitted or top-dose-only effect, or another doubt; inactive = no such curve, though single readings can be large or run the other way. No potency is given beside an inconclusive call; the fits are too rough.

Experiment: Primary qHTS for delayed death inhibitors of the malarial parasite plastid, 48 hour incubation
Details: P. falciparum luciferase growth in erythrocytes; series mostly up to 28.7 µM; activity change, negative = inhibition: at the top concentration
Method in brief: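 Cell-based growth assay: transgenic P. falciparum expressing firefly luciferase, cultured in red cells within RPMI 1640 containing 0.5% w/v Albumax, 24 mM bicarbonate and gentamycin. A drop in luciferase activity indicates inhibition.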
% is set by controls: 0 for no effect and ±100 for the full control effect; potency is the fitted concentration of half-maximal effect; tags give direction and shape of the fitted curve.

| Compound | Potency | activity change, negative = inhibition |
| --- | --- | --- |
| CCNC(=O)C1Cc2cc(S(=O)(=O)N3CCCC3)ccc2N1C(C)=O (centres undefined) | inconclusive [inhibitor, partial curve, poor fit] |  |
| COc1ccc(C2=NN(C(=O)c3cccs3)C(c3ccccc3OC)C2)cc1OC (centres undefined) | inconclusive [inhibitor, single point] |  |
| CCOC(=O)CC1C(=O)NCCN1c1nc2ccc(C)cn2c(=O)c1/C=C1\SC(=S)N(CC(C)C)C1=O (centres undefined) | inconclusive [inhibitor, single point] |  |
| CSc1ccccc1NC(=O)CN(C)C(C)C(=O)Nc1ccc(C#N)cc1 (centres undefined) | inconclusive [inhibitor, single point] |  |
| O=C(CN1C(=O)NC2(CCCCCC2)C1=O)NC1CCCCCCC1 |  | inactive: 4.61% |
| CC(=O)c1ccc(NC(=O)C2CCCN(S(=O)(=O)c3c(C)[nH]c(=O)[nH]c3=O)C2)cc1 (centres undefined) |  | inactive: 157% |
| O=[N+]([O-])c1ccc(S(=O)(=O)Nc2nc3ccccc3nc2Nc2ccccc2)cc1 | inconclusive [inhibitor, partial curve, poor fit] |  |
| Cc1ccc(NS(=O)(=O)c2ccc(C(=O)N3CCCCCCC3)cc2)cc1 | inconclusive [inhibitor, partial curve] |  |
| CN=CC1=C(O)C(C(=O)OC)C(C)(C)CC1=O (centres undefined) |  | inactive: 24.8% |
| O=C(CN1CCN(c2ccc(O)cc2)CC1)NC(c1ccccc1)c1ccccc1 | inconclusive [inhibitor, single point] |  |
| COc1cc2nc(N3CCNCC3)nc(N)c2cc1OC | inconclusive [inhibitor, partial curve] |  |
| Cc1onc(-c2c(F)cccc2Cl)c1C(=O)NC1CCCCCC1 | inconclusive [inhibitor, partial curve, poor fit] |  |
| COc1cnn(-c2ccccc2)c(=O)c1SCc1ccc(Cl)c(Cl)c1 | inconclusive [inhibitor, partial curve, poor fit] |  |
| Cc1ccc(C)c(S(=O)(=O)N2CCN(C(=O)CSc3ccccc3)CC2)c1 |  | inactive: 15.2% |
| CCCCn1nc2cc(C(=O)NCc3cc(C(F)(F)F)cc(C(F)(F)F)c3)ccc2c1OC | inconclusive [inhibitor, single point] |  |
| CN(CC(=O)Nc1ccc([N+](=O)[O-])cc1Br)Cc1c(F)cccc1Cl | inconclusive [inhibitor, single point] |  |
| Cc1cccc(Nc2nc(N)c([N+](=O)[O-])c(N3CCOCC3)n2)c1 | inconclusive [inhibitor, single point] |  |
| O=C(Nc1ccccc1N1CCCCC1)c1ccccc1F | inconclusive [inhibitor, single point] |  |
| O=C(Cn1c(CCCO)nc2ccccc21)Nc1ccccc1-c1ccccc1 |  | inactive: 4.07% |
| CC(=O)NC12CC3CC(C1)CC(C(=O)Nc1nccs1)(C3)C2 | inconclusive [inhibitor, partial curve] |  |
| COc1cc(CNc2nc3ccccc3s2)cc(OC)c1OC |  | inactive: -2.82% |
| Cc1ccc(C(=O)N/C(=C\c2cn(C)c3ccccc23)C(=O)NCCCN2CCOCC2)cc1 | inconclusive [inhibitor, partial curve, poor fit] |  |

| Compound | Potency | activity change, negative = inhibition |
| --- | --- | --- |
| Cc1ccc(NC(=O)COC(=O)C2=COCCO2)cc1 |  | inactive: 33.4% |
| C[C@H](NC(=O)OC(C)(C)C)C(=O)NCC1CCC(C(=O)O)CC1 (some centres undefined) | inconclusive [inhibitor, partial curve, poor fit] |  |
| Cc1oc(S(=O)(=O)N2CCCCC2)cc1NC(=O)Nc1ccc(F)cc1 | inconclusive [inhibitor, partial curve] |  |
| Cc1cccc(C)c1OCc1cc(C(=O)N2CCCC2c2nonc2C)no1 (centres undefined) | inconclusive [inhibitor, partial curve, poor fit] |  |
| Cc1cc(C)cc(NC(=S)NC2CC3CCCC(C2)N3C2CCCC2)c1 (centres undefined) | inconclusive [inhibitor, partial curve, poor fit] |  |
| Cc1cc(Br)ccc1NC(=S)NC1CCCC1 | inconclusive [inhibitor, partial curve, poor fit] |  |
| CCc1ccc(NC(=O)CSc2nc(=O)n3cc(C)ccc3n2)cc1 |  | inactive: 21.3% |
| CSc1nc(C)cc(SCC(=O)Nc2ccc(Cl)cc2Cl)n1 | inconclusive [inhibitor, single point] |  |
| COc1ccccc1C(=O)N1CCN(C2CCN(Cc3ccccc3)CC2)CC1 |  | inactive: 10.6% |
| CCC1CN(C(=O)Nc2ccc(C)cc2)c2cc(C)ccc2O1 (centres undefined) | inconclusive [inhibitor, single point] |  |
| CCOc1ccc(Br)cc1S(=O)(=O)Nc1cccnc1 |  | inactive: 0% |
| O=C(NCC1(c2ccccc2)CCCC1)c1ccccc1 | inconclusive [inhibitor, partial curve, poor fit] |  |
| CC(C)CCNC(=O)CCc1nnc2ccc(N3CCC(C)CC3)nn12 |  | inactive: 2.34% [at 0.00184 µM] |
| COc1ccc(-c2nc(CS(=O)(=O)CC(=O)NCc3cccc(Br)c3)c(C)o2)cc1 |  | inactive: 3.55% |
| CC(=O)Nc1ccc(S(=O)(=O)NC2CCSc3ccccc32)cc1 (centres undefined) | inconclusive [inhibitor, single point] |  |
| O=C(NNC(=S)Nc1ccccc1)c1cccs1 |  | inactive: 193% |
| CCSc1nnc(NC(=O)Cc2ccc(OC)c(S(=O)(=O)N3CCOCC3)c2)s1 | inconclusive [inhibitor, single point] |  |
| O=C1c2[nH]nc(-c3ccccc3O)c2C(c2ccccc2)N1Cc1ccco1 (centres undefined) | active: 11.7 µM |  |
| O=C(COc1ccc2c(C(F)(F)F)cc(=O)oc2c1)NCc1cccs1 |  | inactive: 19.9% |
| COc1nc(Nc2cccc(C(F)(F)F)c2)nc(OC)n1 | inconclusive [inhibitor, single point] |  |
| CCN1CCN(Cc2nc3c(c(=O)n(C)c(=O)n3C)n2Cc2cccc3ccccc23)CC1 | inconclusive [inhibitor, partial curve] |  |
| CCCN(CC(=O)Nc1ccc(C)cc1Br)CC(=O)Nc1ccc(F)c(F)c1F | inconclusive [inhibitor, single point] |  |
